{"source": "paper PMC5740170", "about": "“Pro-inflammatory hepatic macrophages generate ROS through NADPH oxidase 2 via endocytosis of monomeric TLR4–MD2 complex” (Nature Communications, 2017)", "binders": {"B1": {"name": "Human TLR4 ([…]) (domain or fragment)", "chain": "not shown", "notes": "Toll-like receptor 4, human, […]; also called hTLR4; source: High Five insect cells, co-expressed with MD2-protein A, purified (IgG Sepharose, Superdex 200)"}}, "target": "T1, Human MD2 (amino acids 19-160) (human, UniProt Q9Y6Y9 19-160)", "T1 construct": "MD2 (lymphocyte antigen 96), human, amino acids 19-160; also called hMD2; source: High Five insect cells, co-expressed with TLR4, purified (IgG Sepharose, thrombin digestion on resin, Superdex 200); not shown: protein A, C-terminal, cleaved", "T1 sequence (looked up)": "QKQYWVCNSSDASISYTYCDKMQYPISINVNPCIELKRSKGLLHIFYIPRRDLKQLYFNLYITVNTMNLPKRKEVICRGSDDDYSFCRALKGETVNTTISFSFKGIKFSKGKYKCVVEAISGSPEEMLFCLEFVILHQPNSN", "test": "SEC; Superdex 200; hTLR4–MD2 complex alone, co-expressed in High Five cells and co-purified by the protein A tag on MD2 (tag cleaved); elution against standard proteins", "settings": "both partners purified"}
{"binder": "B1", "values": [{"measurement": "stoichiometry N", "result": 1}]}
